According to the supplement of paper PMC4967469:
Lines with a small IC50 respond at low doses; a limit (>, <) means that the fit lies beyond the doses tested. The AUC spans the tested range (256-fold, ending at the top dose) of the same fit; values near 1 show little effect. Any top dose called inferred was calculated from the reported fits. For some of these results: Where an entry number is given, a second screen of the drug exists; the two often differ.

Compound: Cn1cnc2c(F)c(Nc3ccc(Br)cc3Cl)c(C(=O)NOCCO)cc21 [AZD6244]
Experiment: Viability of human cancer cell lines after 72 h of drug (GDSC screen)
Details: top dose 4 µM; screen: GDSC drug entry 1498; top dose inferred
Experimental: (§1)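 Human cancer cell lines in 384-well plates, medium with 10% serum, drug for 72 h over a 256-fold dose range (nine 2-fold or five 4-fold steps up to the top dose). Adherent lines were fixed and stained with the nucleic acid dye Syto60, suspension lines read with resazurin; signal relative to control wells, capped at 0 and 100%. One two-parameter sigmoid per drug and line, fitted in a mixed model over all curves with the slope shared within a line.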

| Cell Line | AUC | IC50 |
| --- | --- | --- |
| A549 (lung adenocarcinoma, adherent) | 0.42 | 0.147 µM |
| BALL-1 (B-cell leukaemia, suspension) | 0.997 | > 4 µM |
| BT-549 (breast, adherent) | 0.844 | > 4 µM |
| CL-34 (large intestine, adherent) | 0.281 | 0.0558 µM |
| CL-40 (large intestine, adherent) | 0.653 | 0.888 µM |
| CML-T1 (chronic myeloid leukaemia, suspension) | 0.938 | > 4 µM |
| COR-L32 (small cell lung carcinoma, suspension) | 0.835 | > 4 µM |
| DIFI (large intestine, adherent) | 0.89 | > 4 µM |
| H2810 (mesothelioma, adherent) | 0.905 | > 4 µM |
| HCC-366 (non-small cell lung carcinoma, adherent) | 0.942 | > 4 µM |
| IGROV-1 (ovary, adherent) | 0.91 | > 4 µM |
| JEKO-1 (B-cell lymphoma, suspension) | 0.979 | > 4 µM |
| JHOS-4 (ovary, adherent) | 0.905 | > 4 µM |
| Jurkat (T-cell leukaemia, suspension) | 0.981 | > 4 µM |
| KARPAS-1106P (B-cell lymphoma, suspension) | 0.99 | > 4 µM |
| KATOIII (stomach, semi-adherent) | 0.98 | > 4 µM |
| KNS-62 (lung squamous cell carcinoma, adherent) | 0.356 | 0.0833 µM |
| MEL-HO (melanoma, adherent) | 0.242 | 0.0447 µM |
| MHH-CALL-2 (B-cell leukaemia, suspension) | 0.995 | > 4 µM |
| MKN7 (stomach, adherent) | 0.882 | > 4 µM |
| MOLM-16 (acute myeloid leukaemia, suspension) | 0.858 | 2.67 µM |

| Cell Line | AUC | IC50 |
| --- | --- | --- |
| MOLT-16 (T-cell lymphoblastic leukaemia, suspension) | 0.931 | > 4 µM |
| NCC010 (kidney, adherent) | 0.937 | > 4 µM |
| NCI-H146 (small cell lung carcinoma, suspension) | 0.989 | > 4 µM |
| NCI-H508 (large intestine, semi-adherent) | 0.866 | > 4 µM |
| NCI-H835 (lung carcinoid, suspension) | 0.981 | > 4 µM |
| NCI-H929 (myeloma, suspension) | 0.759 | 1.21 µM |
| NCI-H1105 (small cell lung carcinoma, suspension) | 0.988 | > 4 µM |
| NCI-H1341 (small cell lung carcinoma, suspension) | 0.934 | > 4 µM |
| NCI-H1650 (lung adenocarcinoma, adherent) | 0.932 | > 4 µM |
| NCI-H2066 (small cell lung carcinoma, adherent) | 0.903 | > 4 µM |
| NCI-N87 (stomach, adherent) | 0.975 | > 4 µM |
| PWR-1E (prostate, adherent) | 0.935 | > 4 µM |
| RCH-ACV (B-cell leukaemia, suspension) | 0.987 | > 4 µM |
| RH-18 (rhabdomyosarcoma, adherent) | 0.909 | > 4 µM |
| SK-GT-2 (stomach, adherent) | 0.897 | > 4 µM |
| SK-MEL-31 (melanoma, adherent) | 0.949 | > 4 µM |
| SUP-B8 (B-cell leukaemia, suspension) | 0.971 | > 4 µM |
| TC-YIK (cervix, suspension) | 0.885 | 3.36 µM |
| U-266 (myeloma, semi-adherent) | 0.835 | > 4 µM |
| VMRC-LCD (lung adenocarcinoma, adherent) | 0.989 | > 4 µM |
| ZR-75-30 (breast, adherent) | 0.981 | > 4 µM |

Compound: CCc1nc(-c2cccc(C)c2)c(-c2ccnc(NC(=O)c3ccccc3)c2)s1 [TAK-715]
Experiment: as above
Details: top dose inferred
Experimental: as §1

| Cell Line | AUC | IC50 |
| --- | --- | --- |
| 8-MG-BA (glioma, adherent, top dose 20 µM) | 0.919 | > 20 µM |
| 22RV1 (prostate, adherent, top dose 20 µM) | 0.949 | > 20 µM |
| 42-MG-BA (glioma, adherent, top dose 20 µM) | 0.982 | > 20 µM |
| 201T (lung adenocarcinoma, adherent, top dose 20 µM) | 0.887 | > 20 µM |
| 451Lu (melanoma, adherent, top dose 20 µM) | 0.98 | > 20 µM |
| 639-V (bladder, adherent, top dose 20 µM) | 0.99 | > 20 µM |
| 647-V (bladder, adherent, top dose 20 µM) | 0.94 | > 20 µM |
| 697 (lymphoblastic leukaemia, suspension, top dose 20 µM) | 0.736 | 4.98 µM |
| 769-P (kidney, adherent, top dose 20 µM) | 0.826 | 13.6 µM |
| 786-0 (kidney, adherent, top dose 20 µM) | 0.905 | > 20 µM |
| 5637 (bladder, adherent, top dose 20 µM) | 0.946 | > 20 µM |
| 8305C (thyroid, adherent, top dose 20 µM) | 0.977 | > 20 µM |
| 8505C (thyroid, adherent, top dose 20 µM) | 0.958 | > 20 µM |
| 23132-87 (stomach, adherent, top dose 20 µM) | 0.928 | > 20 µM |
| A3-KAW (B-cell lymphoma, suspension, top dose 20 µM) | 0.822 | 8.72 µM |
| A4-Fuk (B-cell lymphoma, suspension, top dose 20 µM) | 0.82 | 12.2 µM |
| A101D (melanoma, adherent, top dose 20 µM) | 0.957 | > 20 µM |
| A172 (glioma, adherent, top dose 20 µM) | 0.94 | > 20 µM |
| A204 (rhabdomyosarcoma, adherent, top dose 20 µM) | 0.917 | > 20 µM |
| A253 (head and neck, adherent, top dose 20 µM) | 0.912 | > 20 µM |
| A375 (melanoma, adherent, top dose 20 µM) | 0.895 | 16.7 µM |
| A388 (skin, adherent, top dose 20 µM) | 0.927 | > 20 µM |
| A427 (non-small cell lung carcinoma, adherent, top dose 20 µM) | 0.906 | > 20 µM |
| A431 (skin, adherent, top dose 20 µM) | 0.823 | 11.1 µM |
| A498 (kidney, adherent, top dose 20 µM) | 0.966 | > 20 µM |
| A673 (rhabdomyosarcoma, adherent, top dose 20 µM) | 0.919 | > 20 µM |
